Data: PubChem BioAssay AID757 (NMMLSC, 2007)
In all, about 190,000 compounds went through this assay and about 520 (0.27%) were called active. This list was built around the results that the source calls inconclusive (neither active nor inactive); the mix of calls is not that of the screen.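 Rule for the calls: active = GTP binding activity at least 20 points away from the 100% control level, either lower or higher; inconclusive = compound flagged as likely green fluorescent, judged across all proteins; inactive = the rest.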

molecular target: Ras-related C3 botulinum toxin substrate 1 (Homo sapiens) (UniProt P63000); test: wildtype Rac1 GTP binding modulators, primary screen, biochemical, GST-Rac1 beads, flow cytometry, multiplex (AID 757); settings: fluorescent GTP binding, at 10 µM, actives lie on both sides, 0 = cold GTP competed, 100 = untreated

Row | SMILES | GTP binding activity (% of control)
1 | Cc1cccc(-n2c(C)cc(/C=N\NC(=O)c3cccs3)c2C)c1 | inconclusive: 101%
2 | O=C(O)C1CCCN1C(=O)OCc1ccccc1 (configuration not stated) | active: 139% [activator]
3 | C(=N\N1CCN(Cc2ccccc2)CC1)/c1cccs1 | inconclusive: 96%
4 | COc1cccc(=O)c2c(C)n(CC(=O)c3ccccc3)c(C)c12 | inconclusive: 91%
5 | Cc1cc(C)n2nc(SCCOc3ccc(F)cc3)nc2n1 | active: 68%
6 | S=C(NCc1cccs1)Nc1ccc(Cl)cc1 | inconclusive: 92%
7 | CCOC(=O)N1CCN(C(=O)CC(=O)Nc2ccc3nc4n(c(=O)c3c2)CCCCC4)CC1 | inactive: 95%
8 | O=C1CNC(=O)/C1=C/c1ccc(O)cc1 | inconclusive: 103%
9 | Cc1cccc(OCC(O)CN2C(C)(C)CC(O)CC2(C)C)c1 (configuration not stated) | inconclusive: 108%
10 | CC(=O)Cc1nsc(NC(=O)c2ccco2)n1 | inconclusive: 107%
11 | COc1cccc(C(=O)Nc2cccc(C(=O)NC3=NN(c4c(Cl)cc(Cl)cc4Cl)C(=O)C3)c2)c1 | inconclusive: 88%
12 | CN(c1ccc(OCC(=O)OCC(=O)NCc2ccco2)cc1)S(=O)(=O)c1ccc2ccccc2c1 | inactive: 101%
13 | COc1ccc(Nc2nc(N)nc(CSC(=S)N3CCOCC3)n2)cc1 | inconclusive: 89%
14 | Cc1ccc(NN2C(=O)C=C(c3ccc(Cl)cc3)C2=O)cc1 | inactive: 101%
15 | COc1ccc(S(=O)(=O)CCC(=O)NCCc2ccc(C)cc2)cc1 | inconclusive: 105%
16 | N#Cc1cc([N+](=O)[O-])ccc1NC(=O)COC(=O)CCC1CCCCC1 | inactive: 81%
17 | O=C1OC(Oc2ccccc2)(c2ccccc2)c2ccccc21 (configuration not stated) | inconclusive: 110%
18 | O=C(/C=C/c1ccc([N+](=O)[O-])cc1)NC1CC2CCC1C2 (configuration not stated) | inconclusive: 96%
19 | Cc1ccc(/C=N/NC(=O)C2CCN(Cc3ccc(F)cc3Cl)CC2)o1 | inactive: 102%
20 | N/C(=N\OC(=O)C1CCCCC1)c1cccnc1 | inconclusive: 103%
21 | Cc1ccccc1C(=O)NC1CCN(Cc2nnnn2Cc2ccccc2)CC1 | inconclusive: 106%
22 | CCN1/C(=C/C=C/c2oc3ccc(-c4ccccc4)cc3[n+]2CC)Oc2ccc(-c3ccccc3)cc21 | inconclusive: 466%
23 | Cc1cc(C)c(NC(=O)Cn2cc3c(n2)CCCC3)c(C)c1 | inconclusive: 102%

Row | SMILES | GTP binding activity (% of control)
24 | Cc1cc(C)nc(NNC(=O)NC2CCCCC2)n1 | inconclusive: 95%
25 | C/C(=N\Nc1cc(C)nc(-c2ccccc2)n1)c1cccc([N+](=O)[O-])c1 | active: 73%
26 | O=C(Oc1ccc2c(c1)O/C(=C\c1ccncc1)C2=O)c1ccccc1 | inconclusive: 99%
27 | COc1ccc(N(CC(=O)Nc2ccccc2C(=O)O)S(=O)(=O)c2ccc(C)c([N+](=O)[O-])c2)cc1 | inconclusive: 93%
28 | Cc1cc(/C=c2\sc3nc4ccccc4n3c2=O)c(C)n1-c1ccc(C(=O)O)cc1 | inactive: 81%
29 | O=C(Cn1cnc2c(nnn2Cc2ccccc2F)c1=O)NCC1CCCO1 (configuration not stated) | active: 120% [activator]
30 | O=S(=O)(/N=C(/Nc1ccccc1)c1ccccc1O)c1ccccc1 | inactive: 100%
31 | O=C(Cc1coc(-c2ccc(F)cc2)n1)NCc1ccccc1 | inconclusive: 107%
32 | COc1ccccc1N(CCN1C(=O)c2cccc3cccc(c23)C1=O)C(=O)c1ccncc1 | inactive: 103%
33 | COc1ccc(OC)c(S(=O)(=O)Nc2ccc(O)c(Sc3ncn[nH]3)c2)c1 | active: 31%
34 | Cc1c(NC(=O)/C(C#N)=C/c2ccc(-c3cc(Cl)ccc3Cl)o2)c(=O)n(-c2ccccc2)n1C | inconclusive: 78%
35 | Nc1ncc(Br)cc1S(=O)(=O)NCCC(=O)Nc1cccc(Cl)c1 | inconclusive: 105%
36 | O=C(O)C1C2C=CC(C2)C1C(=O)Nc1ccc(C(=O)N2CCCCC2)cc1 (configuration not stated) | inconclusive: 105%
37 | CCOc1ccccc1-c1c2cc(O)c(=O)cc-2oc2cc(O)c(O)cc12 | inconclusive: 210%
38 | CC(C)N1C(=O)/C(=C\c2nc3ccccc3c(=O)[nH]2)c2ccccc21 | inconclusive: 100%
39 | CC(C)Oc1cccc(C(=O)NC(=S)Nc2ccc3c4c(cccc24)CC3)c1 | inconclusive: 89%
40 | Cn1c(=O)c2ncn(CC(=O)NCCOc3ccc(C(C)(C)C)cc3)c2n(C)c1=O | inconclusive: 101%
41 | CC(=O)Nc1ccc(S(=O)(=O)N2CCCC2C(=O)Nc2ccc3c(c2)OCCO3)cc1 (configuration not stated) | inactive: 102%
42 | COC(=O)C1=C(C)N(c2cc(C)cc(C)c2)/C(=C/c2ccco2)C1=O | inconclusive: 94%
43 | O=C1C2C3C=CC(C3)C2C(=O)N1c1cccnc1 (configuration not stated) | inconclusive: 92%
44 | C=CCN1CCN(C(c2ccccc2OC)c2nnnn2C(C)(C)C)CC1 (configuration not stated) | inactive: 98%
45 | CCCCN(C)CCOc1ccccc1OCC | inconclusive: 107%
46 | CC(C)c1ccc(O)c(NC(=S)NC(=O)CCc2ccccc2)c1 | inactive: 97%

Row | SMILES | GTP binding activity (% of control)
47 | COc1cccc(NC(=O)c2ccc(NC(=O)C3CC(=O)OC34CCCCC4)cc2)c1 (configuration not stated) | inactive: 80%
48 | CC(OC(=O)CCC(=O)c1cccs1)C(=O)Nc1ccccc1[N+](=O)[O-] (configuration not stated) | inconclusive: 92%
49 | Oc1ccccc1N1CCN(C(=S)NCc2ccccc2)CC1 | inactive: 103%
50 | O=C(CN1CC(=O)Nc2ccccc21)NCCc1ccc(Cl)cc1Cl | inactive: 98%
51 | CC(C)N(C(=O)CSc1nnc(CSc2ncccn2)n1C)C(C)C | inconclusive: 107%
52 | CCOc1ccc(NC(=O)C(Cc2ccccc2)N2C(=O)c3cccc4cccc(c34)C2=O)cc1 (configuration not stated) | inactive: 100%
53 | O=c1cc(-c2ccc(O)c(-c3c(O)cc(O)c4c(=O)cc(-c5ccc(O)cc5)oc34)c2)oc2cc(O)cc(O)c12 | inconclusive: 96%
54 | CCOC(=O)c1ccc2c(c1)[n+](CC)c(C)n2-c1ccccc1 | inconclusive: 97%
55 | O=C(COc1ccccc1)Nc1ccc(N2CCN(C(=O)c3cccs3)CC2)cc1 | inconclusive: 93%
56 | Cc1ccc(/C=N/NC(=O)c2cc(C3CC3)nc3ccccc23)o1 | inactive: 97%
57 | CCC(C)(C)n1nnnc1CN1CCc2ccccc21 | inconclusive: 91%
58 | Cc1ccc(NC(=O)CSc2nnc(-c3ccncc3)o2)cc1 | inconclusive: 104%
59 | Cc1ccc(C(=O)CC(C(=O)O)P(=O)(c2ccccc2)c2ccccc2)cc1 (configuration not stated) | inconclusive: 91%
60 | Cc1cccc(C(=O)NC(=S)NNC(=O)c2ccc(Cl)cc2)c1 | inconclusive: 95%
61 | O=C1Nc2cc(Cl)c(Cl)cc2N(O)N1c1ccccc1 | inconclusive: 95%
62 | CCOC(=O)C1(Cc2ccccc2C(F)(F)F)CCN(CC(O)CO)CC1 (configuration not stated) | inactive: 107%
63 | O=C(O)C1C2C=CC(O2)C1C(=O)Nc1ccccc1C(F)(F)F (configuration not stated) | inconclusive: 105%
64 | CC(C)OC(=O)CSc1n[nH]c(-c2cccnc2)n1 | inconclusive: 104%
65 | CC1CCCC(NC(=O)COC(=O)Cc2ccsc2)C1C (configuration not stated) | inconclusive: 100%
66 | Cc1[nH]n(-c2nc(-c3ccc(Cl)cc3)cs2)c(=O)c1N=Nc1ccc(O)cc1 | inactive: 95%
67 | Cc1nn(C)cc1CN1CCCC(C(=O)c2ccc(-c3ccccc3)cc2)C1 (configuration not stated) | inactive: 95%
68 | CCC(CC)C(=O)NCCN1CCN(C(=O)C(CC)CC)CC1 | inconclusive: 109%
69 | CN(C)c1ccc(C(=S)N2CCN(C(=S)Nc3ccc(Cl)cc3)CC2)cc1 | inactive: 98%

Row | SMILES | GTP binding activity (% of control)
70 | CCN1CCN(C(=O)c2c(-c3c(F)cccc3Cl)noc2C)CC1 | inconclusive: 105%
71 | Cc1ccccc1-n1c(SCc2c(C)noc2C)nnc1-c1cccnc1 | active: 132% [activator]
72 | COc1c(Cl)cc(Cl)cc1CNCCO | inactive: 101%
73 | C=CCOc1ccc(C2CC(C)=NN2c2ccccc2)cc1 (configuration not stated) | inactive: 102%
74 | CCCn1c(N)c(C(=O)NS(=O)(=O)c2ccc(C)cc2)c(=O)n(C)c1=O | inconclusive: 90%
75 | CC(=O)Nc1cccc(NC(=O)c2ccc([N+](=O)[O-])cc2Cl)c1 | inconclusive: 106%
76 | N[C@@H](Cc1ccccc1)c1nnc(SCc2ccccc2F)o1 | inactive: 105%
77 | Cc1cccc(NC(=O)CSc2ccc(C(N)=O)cc2[N+](=O)[O-])c1C | inactive: 103%
78 | OC(c1cccc(OCc2ccccc2)c1)c1nnc(-c2ccccc2)o1 (configuration not stated) | inactive: 103%
79 | Cc1ccc(Sc2ncnc3onc(C)c23)c(C)c1 | inconclusive: 101%
80 | CS(=O)(=O)N(CC(=O)N1CCC(C(N)=O)CC1)c1cc(C(F)(F)F)ccc1Cl | inactive: 101%
81 | Cc1[nH]c2ccccc2c1CCNC(=O)c1c(N)no[n+]1[O-] | inconclusive: 92%
82 | CCN(CCn1cccn1)Cc1nc(Cc2cccc(F)c2)no1 | inactive: 98%
83 | CCOC(=O)N1CCC(N2Cc3cccc(C(=O)Nc4ccc(CC)cc4)c3C2=O)CC1 | inconclusive: 91%
84 | CCOc1cc(/C=N/NC(=O)c2cc(-c3cccnc3)nc3ccccc23)ccc1O | active: 78%
85 | COc1ccc(-c2[nH]nc3oc(=O)cc(C)c23)cc1 | inconclusive: 102%
86 | CCCCOC(=O)Nc1nc2ccc(OC)cc2s1 | inconclusive: 106%
87 | S=C(NCc1cccs1)Nc1cccc(Cl)c1 | inconclusive: 107%
88 | COc1ccc(C(=O)N/C(=C\c2ccco2)C(=O)NCCCn2ccnc2)cc1 | inconclusive: 108%
89 | COc1ccc(CSC(=N)N)cc1[N+](=O)[O-] | inconclusive: 105%
90 | CCOC(=O)Cn1cc(C(=O)C2CC2)c2ccccc21 | inconclusive: 88%
91 | CCCc1nnc(SCC(=O)N2CCCCC2C)n1CCOC (configuration not stated) | inactive: 94%
92 | Cc1ccc(C)c(NC(=S)N(Cc2ccc(Cl)cc2)Cc2ccc(C(=O)O)cc2)c1 | inactive: 104%
